# According to the supplement of paper PMC8728848:
# This is one part of the list.
# Tests used:
# Experiment in all cases: glycan array binding signal (z-score within array); higher = stronger binding
# Settings in all cases: glycan notation: IUPAC condensed, linker removed
# GalNAc(b1-3)GalNAc = target: GalNAc(b1-3)GalNAc
# Procedure, shortened: (§1)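 Negative Z-scores can be read as non-binding. The Z-score is calculated within each array and then averaged across arrays of one protein sequence at different concentrations or buffers and across linkers. Arrays, 3228 in all, were curated from the Consortium for Functional Glycomics database and kept only where the protein sequence was available.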
# GalNAc(b1-4)GlcNAc = target: GalNAc(b1-4)GlcNAc
# Procedure, shortened: as §1
# [1] = target: GalNAc(b1-4)GlcNAc(b1-2)Man(a1-3)[GalNAc(b1-4)GlcNAc(b1-2)Man(a1-6)]Man(b1-4)GlcNAc(b1-4)GlcNAc
# Procedure, shortened: as §1
# GalNAc(b1-6)GalNAc = target: GalNAc(b1-6)GalNAc
# Procedure, shortened: as §1
# Glc(a1-4)Glc = target: Glc(a1-4)Glc
# Procedure, shortened: as §1
# Glc(a1-6)Glc(a1-6)Glc = target: Glc(a1-6)Glc(a1-6)Glc
# Procedure, shortened: as §1
# Glc(b1-4)Glc = target: Glc(b1-4)Glc
# Procedure, shortened: as §1
# Glc(b1-6)Glc = target: Glc(b1-6)Glc
# Procedure, shortened: as §1
# GlcA(b1-3)Gal = target: GlcA(b1-3)Gal
# Procedure, shortened: as §1
# GlcA(b1-3)GlcNAc = target: GlcA(b1-3)GlcNAc
# Procedure, shortened: as §1
# GlcA(b1-6)Gal = target: GlcA(b1-6)Gal
# Procedure, shortened: as §1
# [2] = target: GlcNAc(a1-3)Gal(b1-4)GlcNAc
# Procedure, shortened: as §1
# [3] = target: GlcNAc(a1-4)Gal(b1-3)GlcNAc
# Procedure, shortened: as §1
# [4] = target: GlcNAc(a1-4)Gal(b1-4)GalNAc
# Procedure, shortened: as §1
# [5] = target: GlcNAc(a1-4)Gal(b1-4)GlcNAc
# Procedure, shortened: as §1
# [6] = target: GlcNAc(a1-4)Gal(b1-4)GlcNAc(b1-3)Gal(b1-4)Glc
# Procedure, shortened: as §1
# [7] = target: GlcNAc(a1-4)Gal(b1-4)GlcNAc(b1-3)Gal(b1-4)GlcNAc
# Procedure, shortened: as §1
# [8] = target: GlcNAc(a1-4)Gal(b1-4)GlcNAc(b1-3)Gal(b1-4)GlcNAc(b1-3)Gal(b1-4)GlcNAc
# Procedure, shortened: as §1
# [9] = target: GlcNAc(a1-4)Gal(b1-4)GlcNAc(b1-3)Gal(b1-4)[Fuc(a1-3)]GlcNAc(b1-3)Gal(b1-4)[Fuc(a1-3)]GlcNAc
# Procedure, shortened: as §1
# [10] = target: GlcNAc(a1-6)Gal(b1-4)GlcNAc
# Procedure, shortened: as §1
# [11] = target: GlcNAc(b1-2)Gal(b1-3)GalNAc
# Procedure, shortened: as §1
# [12] = target: GlcNAc(b1-2)Man(a1-3)[GlcNAc(b1-2)Man(a1-6)]Man(b1-4)GlcNAc(b1-4)GlcNAc
# Procedure, shortened: as §1
# [13] = target: GlcNAc(b1-2)Man(a1-3)[GlcNAc(b1-2)Man(a1-6)]Man(b1-4)GlcNAc(b1-4)[Fuc(a1-6)]GlcNAc
# Procedure, shortened: as §1
# [14] = target: GlcNAc(b1-2)Man(a1-3)[GlcNAc(b1-4)][GlcNAc(b1-2)Man(a1-6)]Man(b1-4)GlcNAc(b1-4)GlcNAc
# Procedure, shortened: as §1
# [15] = target: GlcNAc(b1-2)[GlcNAc(b1-4)]Man(a1-3)[GlcNAc(b1-2)Man(a1-6)]Man(b1-4)GlcNAc(b1-4)GlcNAc
# Procedure, shortened: as §1
# [16] = target: GlcNAc(b1-2)[GlcNAc(b1-4)]Man(a1-3)[GlcNAc(b1-4)][GlcNAc(b1-2)Man(a1-6)]Man(b1-4)GlcNAc(b1-4)GlcNAc
# Procedure, shortened: as §1
# [17] = target: GlcNAc(b1-2)[GlcNAc(b1-4)]Man(a1-3)[GlcNAc(b1-4)][GlcNAc(b1-2)[GlcNAc(b1-6)]Man(a1-6)]Man(b1-4)GlcNAc(b1-4)GlcNAc
# Procedure, shortened: as §1
# [18] = target: GlcNAc(b1-2)[GlcNAc(b1-6)]Man(a1-6)[GlcNAc(b1-2)Man(a1-3)]Man(b1-4)GlcNAc(b1-4)GlcNAc
# Procedure, shortened: as §1
# [19] = target: GlcNAc(b1-2)[GlcNAc(b1-6)]Man(a1-6)[GlcNAc(b1-2)Man(a1-3)][GlcNAc(b1-4)]Man(b1-4)GlcNAc(b1-4)GlcNAc
# Procedure, shortened: as §1
# GlcNAc(b1-3)Gal = target: GlcNAc(b1-3)Gal
# Procedure, shortened: as §1
# [20] = target: GlcNAc(b1-3)Gal(b1-3)GalNAc
# Procedure, shortened: as §1
# GlcNAc(b1-3)Gal(b1-4)Glc = target: GlcNAc(b1-3)Gal(b1-4)Glc
# Procedure, shortened: as §1
# [21] = target: GlcNAc(b1-3)Gal(b1-4)GlcNAc
# Procedure, shortened: as §1
# [22] = target: GlcNAc(b1-3)Gal(b1-4)GlcNAc(b1-3)Gal(b1-4)GlcNAc
# Procedure, shortened: as §1
# GlcNAc(b1-3)GalNAc = target: GlcNAc(b1-3)GalNAc
# Procedure, shortened: as §1
# GlcNAc(b1-3)Man = target: GlcNAc(b1-3)Man
# Procedure, shortened: as §1
# [23] = target: GlcNAc(b1-3)[GlcNAc(b1-4)][GlcNAc(b1-6)]GlcNAc
# Procedure, shortened: as §1
# [24] = target: GlcNAc(b1-3)[GlcNAc(b1-6)]Gal(b1-4)GlcNAc
# Procedure, shortened: as §1
# [25] = target: GlcNAc(b1-3)[GlcNAc(b1-6)]GalNAc
# Procedure, shortened: as §1
# [26] = target: GlcNAc(b1-4)Gal(b1-4)GlcNAc
# Procedure, shortened: as §1
# GlcNAc(b1-4)GlcNAc = target: GlcNAc(b1-4)GlcNAc
# Procedure, shortened: as §1
# [27] = target: GlcNAc(b1-4)GlcNAc(b1-4)GlcNAc
# Procedure, shortened: as §1
# [28] = target: GlcNAc(b1-4)GlcNAc(b1-4)GlcNAc(b1-4)GlcNAc(b1-4)GlcNAc
# Procedure, shortened: as §1
# [29] = target: GlcNAc(b1-4)GlcNAc(b1-4)GlcNAc(b1-4)GlcNAc(b1-4)GlcNAc(b1-4)GlcNAc
# Procedure, shortened: as §1
# [30] = target: GlcNAc(b1-4)[GlcNAc(b1-6)]GalNAc
# Procedure, shortened: as §1
binder,measurement,setting,value
Gal 4 (Canis lupus) (protein) MAYVPAPGYQPTYNPTLPYNKPIPGGLSVGMSVYIQGITSEHMRRFCVNFVAGAHPGSDIAFHFNPRFDGWDKVVFNSHLGGKWGSEEKKRSMPFRKGTHFELVFMVLAEHYKVVVNGNPFYEFGHRLPLQLVTHLQVEGDVELQSINFIGGTQPLGQGPGHTQQQPSSLPTMEGPPVFNPPVPFRKRLQGGLTVRRTVIIKGFVPFTSKSFVINFMVESSGDLALHINPRLTEGLVVRNSCLNGSWGSEDRKLSYNPFIPGQFFDLSIRCGMDRFKVYANGQHLFDFSHRLLALQNVDMLEINGDVTLSYIQV,glycan array binding signal (z-score),GalNAc(b1-3)GalNAc,-0.146
same,glycan array binding signal (z-score),GalNAc(b1-4)GlcNAc,-0.145
same,glycan array binding signal (z-score),[1],-0.13
same,glycan array binding signal (z-score),GalNAc(b1-6)GalNAc,-0.144
same,glycan array binding signal (z-score),Glc(a1-4)Glc,-0.152
same,glycan array binding signal (z-score),Glc(a1-6)Glc(a1-6)Glc,-0.139
same,glycan array binding signal (z-score),Glc(b1-4)Glc,-0.146
same,glycan array binding signal (z-score),Glc(b1-6)Glc,-0.149
same,glycan array binding signal (z-score),GlcA(b1-3)Gal,-0.149
same,glycan array binding signal (z-score),GlcA(b1-3)GlcNAc,0.144
same,glycan array binding signal (z-score),GlcA(b1-6)Gal,-0.15
same,glycan array binding signal (z-score),[2],-0.145
same,glycan array binding signal (z-score),[3],-0.143
same,glycan array binding signal (z-score),[4],-0.148
same,glycan array binding signal (z-score),[5],-0.147
same,glycan array binding signal (z-score),[6],-0.147
same,glycan array binding signal (z-score),[7],-0.138
same,glycan array binding signal (z-score),[8],-0.145
same,glycan array binding signal (z-score),[9],-0.128
same,glycan array binding signal (z-score),[10],-0.139
same,glycan array binding signal (z-score),[11],-0.123
same,glycan array binding signal (z-score),[12],-0.145
same,glycan array binding signal (z-score),[13],-0.131
same,glycan array binding signal (z-score),[14],-0.148
same,glycan array binding signal (z-score),[15],-0.153
same,glycan array binding signal (z-score),[16],-0.157
same,glycan array binding signal (z-score),[17],-0.156
same,glycan array binding signal (z-score),[18],-0.148
same,glycan array binding signal (z-score),[19],-0.148
same,glycan array binding signal (z-score),GlcNAc(b1-3)Gal,-0.149
same,glycan array binding signal (z-score),[20],-0.147
same,glycan array binding signal (z-score),GlcNAc(b1-3)Gal(b1-4)Glc,-0.15
same,glycan array binding signal (z-score),[21],-0.152
same,glycan array binding signal (z-score),[22],-0.154
same,glycan array binding signal (z-score),GlcNAc(b1-3)GalNAc,-0.148
same,glycan array binding signal (z-score),GlcNAc(b1-3)Man,-0.149
same,glycan array binding signal (z-score),[23],-0.149
same,glycan array binding signal (z-score),[24],-0.149
same,glycan array binding signal (z-score),[25],-0.157
same,glycan array binding signal (z-score),[26],-0.138
same,glycan array binding signal (z-score),GlcNAc(b1-4)GlcNAc,-0.146
same,glycan array binding signal (z-score),[27],-0.145
same,glycan array binding signal (z-score),[28],-0.151
same,glycan array binding signal (z-score),[29],-0.145
same,glycan array binding signal (z-score),[30],-0.147
